Our source for the self-cleavage values is the RNAGym collection of RNA variant scans (doi:10.1093/nar/gkz1192).

The source gives no read counts; variants with many changes may rest on few reads.

B1: CPEB3 Ribozyme (parent)
chain: UAACAGGGGGCCACAGCAGAAGCGUUCACGUCGCAGCCCCUGUCAGAUUCUGGUGAAUCUGCGAAUUCUGCUGUAUAUCUC

In this series the parent is B1. Briefly: self-cleavage, relative activity (ratio to wild type); higher = more cleavage; in vitro, sequencing. A digest of the protocol:
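Libraries of CPEB3 self-cleaving ribozyme mutants came from rounds of error-prone PCR and carried barcodes, which DNA sequencing matched to variants. In vitro transcription used T7 RNA polymerase at 37°C for 5 hours, with a further 15 min in DNase I before EDTA stopped the reaction; the ribozymes cleaved during both steps. The RNA was reverse transcribed with template switching and sequenced on Illumina. Relative activity is the cleaved/total read fraction of a variant divided by that of the unmutated ribozyme, averaged over three batches with at least 5 reads.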
A15U C59G U72G U80C: the self-cleavage amounted to 0.23.
As to A15U C29U G30U G52A U60A, the self-cleavage came to 0.11.
For A15U A57C A65G U78C the value was 0.08; for A15U U25C C62U, 0.27.
The same measure for A15U C17G C34A A64U: 0.11; for A15U A45U U51A: 0.35.
The same measure for A15U C32G U48A U51A U54A U72A: 0.09; for A15U C29U U48A U66C U72A: 0.09; for A15U G24C U49A U69C: 0.11.
In the case of A15U A45U U66C A77U, the self-cleavage stood at 0.19.
For A15U C40U A65U U74C the value was 0.11; for A15U A35G U58C, 0.83; for A15U A47G U49A U54G, 0.16.
Take A15U G24A U72A: the self-cleavage was 0.12.
For A15U G30C A35U U76C the value was 0.17; for A15U C17G C27G C34A C39U U60C, 0.07.
The same measure for A15U C32U G63C: 0.12.
For A15U C32G A47G U69C the value was 0.05.
For A15U A35U A64G U69A, the self-cleavage was 0.15.
For A15U G19A A20G A35G U49C U58A A64U the value was 0.06.
For A15U A47U U58C the value was 0.2; for A15U U25C U58C G63U, 0.09; for A15U C17G U69A, 0.29.
The same measure for A15U A35U A47U U78A: 0.07; for A15U G42C U49A U66C: 0.04; for A15U C27U C29U U41C U80C: 0.05.
Consider A15U A56C A57G U60A, for which the self-cleavage was found to be 0.14.
Take A15U A45G U48C U66A: the self-cleavage was found to be 0.11.
As to A15U C32A U41C U58A A77G, the self-cleavage worked out at 0.05.
The same measure for A15U A65G U78C: 0.24; for A15U G19U G30A G61C: 0.15.
The same measure for A15U G19A U26C A45G: 0.07.
For A15U C59U U69C the value was 0.09.
As for A15U U25A G52C A56G G61C U69C U80C, the self-cleavage was 0.04.
The same measure for A15U U26A A35U G53A A64U: 0.08.
The same measure for A15U A35U C59U U69C U78C: 0.12; for A15U G19U U26A: 0.18.
The same measure for A15U G19A A28G: 0.14.
In the case of A15U C27U G30A U43A A45U U80C, the self-cleavage worked out at 0.05.
The same measure for A15U C23U A57G: 0.13.
The same measure for A15U C17U G24A U25A: 0.11; for A15U C17U A47G A75U: 0.25.
The same measure for A15U C23G A28U U58A U67C: 0.05.
As for A15U A35G U76C, the self-cleavage was 1.28.
The same measure for A15U U25C U41A U60C A77U U80C: 0.07; for A15U C38A G55A: 0.11.
For A15U C38U U49C the value was 0.2; for A15U C32A U54A U67A, 0.06; for A15U A35U U58C U60A, 0.12.
For A15U U25A A56U A64C U72A the value was 0.1.
A15U A47G U48C U60C: the self-cleavage is 0.23.
The same measure for A15U U25A U60A: 0.3; for A15U U26A A28G U43A U72A: 0.04.
For A15U C38U U48A U54A the value was 0.18; for A15U C17U U41C A56G, 0.44; for A15U A47G U60C, 0.17.
The same measure for A15U C32U U67C: 0.29; for A15U A35G C40U A45G U54C U60A U80A: 0.89.
With A15U C62G U67C, the self-cleavage is 0.06.
For A15U G16U A20U C27U U43A the value was 0.27; for A15U C29G U43C U72A, 0.17; for A15U A64G U78C, 0.57.
On to A15U A28U U66C, for which the self-cleavage is 0.15.
Consider A15U C29A U43C, for which the self-cleavage stood at 0.15.
For A15U A47C U72C A75U the value was 0.25.
The same measure for A15U A57G U80C: 1.01.
For the variant A15U A35U U41A U43A, the self-cleavage was 0.21.
For A15U G52U U54A C79G the value was 0.53; for A15U G42U U60C, 0.16; for A15U A45U U49A U69A, 0.09.
For A15U A45U U78C the value was 0.17; for A15U A35G U78C, 1.27; for A15U A65G A75G, 0.23.
For A15U G30A C34U A75U the value was 0.06; for A15U C38U U67A, 0.24.
Consider A15U U25C U69A, for which the self-cleavage turned out to be 0.09.
For the variant A15U U25C U80A, the self-cleavage was found to be 0.07.
For the variant A15U U25C U80C, the self-cleavage stood at 0.17.
As for A15U C40A G46A U60C, the self-cleavage was found to be 0.15.
The same measure for A15U U26A U54A A57G: 0.3.
In the case of A15U A35G A47U U72A, the self-cleavage was 0.84.
For A15U A35G U48C A57G the value was 1.27; for A15U G19A A35G U58G, 0.09.
For A15U U25A A28C U31C A64G the value was 0.13; for A15U G33U U49C U51C C68A C81A, 0.06.
For A15U C17U U72C the value was 0.43.
On to A15U C29G G36A C37U U41C A64G, for which the self-cleavage worked out at 0.18.
For A15U A35G A47U C68U the value was 0.95; for A15U A56U A65G U67C, 0.15; for A15U U25C U43A C44U U51C U60C, 0.07.
For A15U C27U A35G U54A U78C the value was 0.34; for A15U C39U A65G U66G U67C, 0.15; for A15U U25C U43A C62U U67C, 0.19.
The same measure for A15U U25C U26C U41C: 0.21; for A15U U26A C27U C39A A45U A47G U58C: 0.03.
In the case of A15U U26A G42A C62G U78G, the self-cleavage is 0.06.
The same measure for A15U G52U G61C U72A: 0.08; for A15U A35G A75G U78C: 1.47.
The same measure for A15U C40U U80C: 0.94; for A15U C17U U51C A57G U76C: 0.16; for A15U A35U U49A U72A U78C: 0.24.
As to A15U U25C U43A U51C, the self-cleavage came to 0.42.
The same measure for A15U G33U A45G U54G U58C U67C U76A: 0.11; for A15U A47U C50G: 0.17; for A15U U25C G63A: 0.48.
For A15U A35U C50A the value was 0.19; for A15U C37U U58C, 0.12.
The same measure for A15U U25C U51A U67C U69C: 0.1; for A15U C23U U51C: 0.42; for A15U G30A A75U: 0.26.
Take A15U G42A U69A: the self-cleavage was determined as 0.05.
Turning to A15U U25A U31C U54C, the self-cleavage was found to be 0.2.
For A15U U25C A47G U58C U74C the value was 0.05.
As to A15U A35G U41C U49C U72A, the self-cleavage is 0.6.
For A15U A47G A56G the value was 0.4.
The same measure for A15U U25A C50A: 0.2; for A15U C27A A57G: 0.27; for A15U A65G A77U: 0.1.
Take A15U C32U C34U: the self-cleavage worked out at 0.09.
Regarding A15U A35G U66C U72C U80C, the self-cleavage was found to be 1.11.
For A15U G55U U72C, the self-cleavage was 0.83.
The same measure for A15U G16A A45G: 0.25; for A15U C27U U74G: 0.23.
For A15U C32U U67C U72A the value was 0.07.
The same measure for A15U A45U U48C C71U: 0.22; for A15U C62A U80C: 0.56; for A15U C23U A35G U41C U49C U72A: 0.1.
Turning to A15U G19U U25A A56G A57G U80C, the self-cleavage was 0.06.
For A15U U26A U43A U51C A57G U66C the value was 0.14; for A15U C23G U43C U51C, 0.07.
Regarding A15U U25C G33A G46A, the self-cleavage worked out at 0.19.
The same measure for A15U A57U C59A A65G U69A U78C: 0.09; for A15U G24A U43A A47G: 0.08.
For A15U G16A A18U U54C U76C the value was 0.25.
The same measure for A15U U26C A28C C71U A75G: 0.11; for A15U C23A U31C U41A C71U: 0.07; for A15U A45G U58C A77G: 0.1.
Take A15U U25C U31C U48A U80C: the self-cleavage amounted to 0.3.
For A15U A35G U49C A77U the value was 0.91; for A15U A35U U43C U48C, 0.15.
The same measure for A15U A35U G36A U49A U51A: 0.16.
The same measure for A15U A35U A45G U67C U72C: 0.16.
As for A15U G46U U60C U80C, the self-cleavage came out at 0.09.
The same measure for A15U G55C U72C U78A U80C: 0.27.
For A15U A56G U67C the value was 0.18; for A15U C40U U43C U66C U72C, 0.19.
For A15U A35G U48C the value was 1.04; for A15U U25C U41C, 0.4.
Regarding A15U U25C U41A, the self-cleavage turned out to be 0.07.
The same measure for A15U A64U U74C: 0.23.
For A15U A35G C39A U60C U69A G70C the value was 0.06; for A15U C29U U41A U67A U80A, 0.27.
On to A15U U25C U26C U31C U41C U72C, for which the self-cleavage amounted to 0.09.
Take A15U U25C U69A U72G: the self-cleavage came out at 0.32.
For A15U A35U U60A A64G the value was 0.11; for A15U C62U U67C, 0.12.
For A15U U25C A45U the value was 0.25; for A15U U25A A56U, 0.15; for A15U G16A A56G U80C, 0.86.
The same measure for A15U A35U U72C: 0.25; for A15U U25C U43G A56G U74C: 0.23.
As to A15U C23U U43A U49C, the self-cleavage is 0.18.
The same measure for A15U A35G A64U U67C: 0.35; for A15U C32U A56U: 0.08; for A15U C23U U41A: 0.44.
The same measure for A15U U25A A57U A64U: 0.66; for A15U C40G A56U U78C: 0.03.
